Reference: PubChem BioAssay AID1963576 (National Center for Advancing Translational Sciences (NCATS), 2024)
Among all 46,000 compounds or so, about 60 (0.1%) were called active. Inconclusive results (about 3%) are left out. Calls follow the shape of the dose curve; as a rule, active = well fitted inhibition curve with a large enough effect; inconclusive = small, poorly fitted or top-dose-only effect; inactive = no such curve, though single readings can be large or run the other way. The list shows a part of the results.

experiment: Primary qHTS assay for Inhibitors of ovarian cancer metastasis using an organotypic tumor microenvironment (TME) model.; also: nearly all actives have a fitted effect of over 65% in size;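 as to activity change, negative = inhibition: plate controls were DMSO wells for no effect and tomatine positive control wells for full effect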; details: SKOV3ip1-GFP adhesion/invasion on 3D omental model, fluorescence; series mostly up to 45.8 µM; activity change, negative = inhibition: at the top concentration
Summary of the method: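 qHTS, 4-pt dose (0.36-46 umol/L); SKOV3ip1-GFP, 1,200 cells/well, no FBS; primary omental fibroblast/mesothelial co-culture 48 h pre-grown; 2 h RT + 16 h 37 C; PBS wash, 4% PFA; GFP count 488/509 nm.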

outcome, inactive:
CC(C)NC(=O)C1CCN(C(=O)N2CC(C)Oc3ccccc32)CC1 (centres undefined)
CCS(=O)(=O)NCCc1csc2nc(-c3ccc(C)cc3)nn12
Cc1cccc(-n2c(-c3ccco3)nc3c(cnn3-c3ccc(F)cc3)c2=O)c1
CC1CCc2c(sc(NC(=O)c3cc(-c4ccc(Br)cc4)on3)c2C(N)=O)C1 (centres undefined)
O=C(COc1ccccc1)Nc1c(Cl)ccc2nsnc12
COC(=O)CC1Oc2ccc(Cl)cc2-n2cc(-c3ccc(F)cc3)nc21 (centres undefined)
CC(=O)N1CCc2cc(S(=O)(=O)N3CCN(c4ccc(C)cc4)C(C)C3)ccc21 (centres undefined)
Cc1ccc(OCc2cc(=O)n3cc(C)sc3n2)c(C)c1
CCCCOc1ccc(C(=O)NCCc2csc(-c3ccc(OC)cc3)n2)cc1
CCN(Cc1ccccc1)S(=O)(=O)c1ccc2[nH]c3c(c2c1)CCCCC3
CN(Cc1ccccc1)c1ccc(-c2nc(-c3cccnc3)no2)cc1[N+](=O)[O-]
Cc1c(C(=O)OCCOc2ccccc2)[nH]c2c1C(=O)CC(c1ccccc1Cl)C2 (centres undefined)
CCc1ccccc1NC(=O)CN1C(=O)COc2ccc(S(=O)(=O)N3CCCCCC3)cc21
CCn1cc(C(=O)N2CCN(c3ccccc3OC)CC2)c(=O)c2cc(S(=O)(=O)N3CCC(C)CC3)ccc21
Cc1ccc(NC(=O)CSc2nc3ccc(NC(=O)CCc4ccccc4)cc3s2)c(C)c1
CCOC(=O)C1=C(C(F)(F)F)Nc2ncnn2C1c1cccc(OC)c1OC (centres undefined)
CCOC(=O)c1cnc2c(C)cc(C)cc2c1Nc1ccc(OCc2ccccc2)cc1
COc1ccc(NC(=O)C2=C(C)Nc3ncnn3C2c2ccccn2)cc1 (centres undefined)
O=C(Cn1c(=O)n(CC2CCCO2)c(=O)c2ccccc21)Nc1ccc(F)cc1F (centres undefined)
N#C/C(=C/c1ccccc1Cl)c1nc(-c2cc3ccccc3oc2=O)cs1
CCOc1ccc(C(c2c(O)cc(C)n(CCOC)c2=O)N2CCN(c3ccc(F)cc3)CC2)cc1 (centres undefined)
COC(=O)c1ccc(NC(=O)CN(C)S(=O)(=O)c2ccc3c(c2)CCCC(=O)N3)cc1
COc1cc(NC(=O)c2noc3c2CC(C(C)(C)C)CC3)cc(OC)c1OC (centres undefined)
COCCn1c(C)cc(O)c(C(c2ccccc2Cl)N2CCN(c3ccccc3)CC2)c1=O (centres undefined)
CCOc1ccc(-c2cc(CCCC(=O)NCCc3ccc(SC)cc3)no2)cc1

Activity change, negative = inhibition, inactive:
CCOc1ccc2nc(N3CCCC(C(=O)NCc4ccc(C)cc4)C3)sc2c1 (centres undefined) 6.07%
Cc1ccc(C)c(NC(=O)Nc2csc3c2CCCC3)c1 5.74%
O=C(COCc1cc(-c2cccs2)on1)Nc1cccc(O)c1 0.101%
COc1ccc(NC(=O)Cn2cc(C(=O)c3cccs3)c3ccccc32)cc1 0.0792%
CCC1=C(c2ccc(C)cc2)S(=O)(=O)N=C1N1CCC(C(=O)N2CCCCC2)CC1 0.796%
COC(=O)c1c(C)sc(-c2c(-c3ccc4c(c3)OCCO4)[nH]c3c2c(=O)[nH]c(=O)n3C)c1O -27.3%
Cc1ccc(-n2cnc3cc(C(=O)NC4CCCCCC4)ccc32)cc1Cl -20.1%
COc1ccc(NC(=O)C2CCN(S(=O)(=O)c3c(C)noc3/C=C/c3ccc(C)cc3)CC2)cc1Cl -9.04%
Cc1c(CNCCCc2ccccc2)c(C(=O)O)c(C)n1Cc1cccc(Cl)c1 -0.252%
COc1ccc(-c2nn(C)c3sc(C(=O)N4CCN(c5cccc(Cl)c5)CC4)cc23)cc1OC 0.0809%
O=C(O)CO.[NH2-].[NH2-].[Pt+2] -5.19%
CCc1ccc(OCC(=O)Nc2ccc(Cl)c(-c3nc4ncccc4o3)c2)cc1 0.796%
COc1ccc(S(=O)(=O)c2cn(C)c3cc(N4CCOCC4)c(F)cc3c2=O)cc1 -8.39%
Cc1ccc(NS(=O)(=O)c2ccc3[nH]c4c(c3c2)CCCCC4)cc1 -15.9%
CC(C)(C)NC(=O)CCSc1nc(-c2ccc3c(c2)OCO3)cc(C(F)(F)F)n1 29.8%
CCN1CCN(C(=O)c2c(C)nn(-c3ccc(F)cc3)c2-n2cccc2)CC1 -21.1%
CCCCCCCCCCCC(CC1OC(=O)C1CCCCCC)OC(=O)C(CC(C)C)NC=O (centres undefined) 0.698%
Cc1ccc(C)c(NC(=O)CSc2nc(-c3ccccc3Cl)nc3c2Cc2c(CO)cnc(C)c2O3)c1 6.83%
CCOC(=O)c1cnc2nc(NCc3ccc(OCC)cc3)[nH]n2c1=O 7.21%
CN(C)c1ccc(CNC(=O)c2cccn2-c2nnc(N3CCCCC3)s2)cc1 42.6%
Cc1cc(-c2nc3ncccc3o2)ccc1NC(=O)COc1cc(C)c(Cl)c(C)c1 -22.8%
CCOC(=O)c1cccc(NC(=O)c2nn(-c3ccc(OC)cc3)c(=O)c3c2c2ccccc2n3C)c1 -6.55%
O=C(NCc1ccc(F)cc1)C(=O)NCC(c1cccs1)S(=O)(=O)c1cccs1 (centres undefined) 4.39%
CCN(CC)S(=O)(=O)c1ccc2c(c1)N(CC(=O)NCC(C)c1ccccc1)C(=O)CO2 (centres undefined) 7.37%
COc1ccccc1CNC(=O)c1ccc2c(c1)N(Cc1ccc(C)cc1)CCS2 9.3%
Cc1ccc(-n2ncc3c(N4CCCCCC4)ncnc32)cc1C -20.1%
CNS(=O)(=O)c1cn(CC(=O)N2CCN(c3cccc(Cl)c3)CC2)cc1S(=O)(=O)NC -0.825%
CC(C)Oc1ccc(CNC(=O)c2ccccc2NC(=O)c2nsc3ccccc23)cc1 -7.55%
CCC(Oc1ccccc1)C(=O)Nc1ccc(OCc2cc(=O)n3ccc(C)cc3n2)cc1 (centres undefined) -8.97%
Cc1oc(-c2ccccc2F)nc1CSCC(=O)NCCc1ccccc1 -5.32%
CCCCC(C=O)NC(=O)C(CC(C)C)NC(=O)OCc1ccccc1 (centres undefined) -4.12%
O=S(=O)(NCCc1nnc2ccc(SCc3c(F)cccc3Cl)nn12)c1ccccc1 -8.37%
COC(=O)c1ccc(CN(Cc2ccc(OC)c(OC)c2)S(=O)(=O)c2cc(C(=O)Nc3cccc(C)c3)ccc2F)cc1 8.09%
O=C(CCCCn1c(=O)c2ccccc2n(Cc2ccccc2F)c1=O)NCc1ccccc1Cl 23.7%
CCN(CC)C(=O)C1=CC(c2ccc3c(c2)OCO3)=NS(=O)(=O)N1C 1.1%
COc1ccc(N2C(=O)CS(=O)(=O)C23C(=O)N(Cc2c(F)cccc2Cl)c2ccccc23)cc1 (centres undefined) -21.9%
CC(C)CCNC(=O)c1cc(Sc2ccc(F)cc2F)nc2ccccc12 10.4%
COc1ccc(NC(=O)CN(C)S(=O)(=O)c2ccc3nc(C)sc3c2)cc1 -1.06%
O=C(CN1CCN(CC(=O)Nc2ccccc2F)CC1)Nc1ccc(Cl)c(C(F)(F)F)c1 -10.1%
CCCCn1cc(S(=O)(=O)c2ccccc2)c(=O)c2cc(F)c(N3CCC(C)CC3)cc21 0.176%
O=C(NCCc1ccccc1)c1ccc(CSc2nc3ccncc3n2Cc2cccc(F)c2)cc1 -12.6%
COc1cc(C(=O)Nc2ccc(OCc3cc(=O)n4cccc(C)c4n3)cc2)cc(OC)c1OC 1.32%
CCc1ccc(NC(=O)C2CCN(S(=O)(=O)c3c(C)noc3/C=C\c3ccc(OC)cc3)CC2)cc1 0.334%
CC1=C(c2ccc(C)c(C)c2)S(=O)(=O)N=C1N1CCC(C(=O)N2CCCCC2)CC1 -7.64%
CCOc1ccc(CNC(=O)CCc2cn(CC)c3ccccc23)cc1 -7.65%
CCOc1ccccc1N1CC(c2nc3ccccc3n2CCCCOc2cc(C)ccc2C)CC1=O (centres undefined) -2.02%
CN(C)c1ccc(CNC(=O)c2ccc3c(c2)N(C)C(=O)C2CCCCN32)cc1 (centres undefined) -16.4%
O=C(c1cnc(N2CCOCC2)c2ccccc12)N1CCN(c2ccccc2F)CC1 2.29%
COc1ccc(-n2nc(C(=O)NCc3ccc(F)cc3)c3c4ccccc4n(C)c3c2=O)cc1 5.89%
CCN(CC)C(=O)c1sc2c(c1C)c(=O)n(CCc1ccccc1)c(=O)n2Cc1cccc(Cl)c1 16.1%
COc1ccccc1CNc1ccc(-c2nc(-c3cccc(C)c3)no2)cc1[N+](=O)[O-] -8.36%
CCCCOc1ccc(CN2C(=O)C(=O)c3cc(C)ccc32)cc1OC 16.1%
COC(=O)c1cc(NC(=O)Cn2nc(-c3ccccc3)c3c(c2=O)CCCC3)cc(C(=O)OC)c1 5.74%
COc1cc(C)ccc1OCCSc1nc2ccc(NC(=O)c3ccccc3F)cc2s1 -5.21%
CCc1ccc(-c2cc(C)no2)cc1S(=O)(=O)NCc1ccc(OC)cc1 -29%
Fc1ccc(NCc2ccccc2-c2nnc(-c3ccccc3Cl)o2)cc1Cl -2.2%
CCN(CC)C(=O)Cn1c(=O)n(CCCCCC(=O)NCc2ccc(C)cc2)c(=O)c2sccc21 8.76%
CC(=O)N1CCc2c(sc3c2c(=O)n(-c2cc(Cl)ccc2C)c(=O)n3C)C1 9.24%
CCOc1ccc(-n2c(=O)c3c(C)c(C)sc3n(Cc3ccc(C(C)(C)C)cc3)c2=O)cc1 2.16%
O=C(Nc1ccccc1Br)N[C@@H]1CCN(c2ccc(C(F)(F)F)cn2)C1 0.598%
Cc1sc2ncn(CC(=O)N3CCN(c4cccc(Cl)c4)CC3)c(=O)c2c1S(=O)(=O)N1CCC(C)CC1 -3.9%
Cc1cccc2cc(-c3nc(-c4cccs4)no3)c(=O)oc12 -5.03%
CCn1cc(S(=O)(=O)c2cc(C)cc(C)c2)c(=O)c2cc(F)c(N3CCN(c4ccccc4)CC3)cc21 12.1%
COc1cccc(C(=O)N2CCc3cc(OC)c(OC)cc3C2COc2ccc3c(C)cc(=O)oc3c2)c1 (centres undefined) 14.5%
COc1ccc(Cl)cc1NC(=O)COc1cccc2c(=O)n(C)ccc12 2.87%
CCCCNC(=O)Cn1nc(N2CCN(c3ccccc3OC)CC2)ccc1=O -10.6%
COc1ccc(OCC(=O)N2CCN(C(=O)c3cccc(OC)c3OC)CC2)cc1 -18.5%
Cc1cccc(C=NNc2cc(N3CCOCC3)nc(OCCc3ccccn3)n2)c1 -31%
CCCCN(C(=O)CCn1c(=O)oc2ccccc21)c1ccccc1 -2.03%
